# Results from paper PMC4336329 (PLoS ONE, 2015).
# Among all 310,000 compounds or so, about 14,000 (4.5%) showed an effect of 50% or more. The effect is printed as a negative number. The list shows a part of the results.
# Molecular target: human ether-à-go-go-related gene (hERG) potassium channel (human, UniProt Q12809)
# Test: primary screen, population patch clamp on CHO cells stably expressing hERG
# 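Further: peak tail current of the secondary pulse compared with the same well before compound.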
# human ether-à-go-go-related gene (hERG) potassium channel, sequence (Q12809 whole entry, looked up): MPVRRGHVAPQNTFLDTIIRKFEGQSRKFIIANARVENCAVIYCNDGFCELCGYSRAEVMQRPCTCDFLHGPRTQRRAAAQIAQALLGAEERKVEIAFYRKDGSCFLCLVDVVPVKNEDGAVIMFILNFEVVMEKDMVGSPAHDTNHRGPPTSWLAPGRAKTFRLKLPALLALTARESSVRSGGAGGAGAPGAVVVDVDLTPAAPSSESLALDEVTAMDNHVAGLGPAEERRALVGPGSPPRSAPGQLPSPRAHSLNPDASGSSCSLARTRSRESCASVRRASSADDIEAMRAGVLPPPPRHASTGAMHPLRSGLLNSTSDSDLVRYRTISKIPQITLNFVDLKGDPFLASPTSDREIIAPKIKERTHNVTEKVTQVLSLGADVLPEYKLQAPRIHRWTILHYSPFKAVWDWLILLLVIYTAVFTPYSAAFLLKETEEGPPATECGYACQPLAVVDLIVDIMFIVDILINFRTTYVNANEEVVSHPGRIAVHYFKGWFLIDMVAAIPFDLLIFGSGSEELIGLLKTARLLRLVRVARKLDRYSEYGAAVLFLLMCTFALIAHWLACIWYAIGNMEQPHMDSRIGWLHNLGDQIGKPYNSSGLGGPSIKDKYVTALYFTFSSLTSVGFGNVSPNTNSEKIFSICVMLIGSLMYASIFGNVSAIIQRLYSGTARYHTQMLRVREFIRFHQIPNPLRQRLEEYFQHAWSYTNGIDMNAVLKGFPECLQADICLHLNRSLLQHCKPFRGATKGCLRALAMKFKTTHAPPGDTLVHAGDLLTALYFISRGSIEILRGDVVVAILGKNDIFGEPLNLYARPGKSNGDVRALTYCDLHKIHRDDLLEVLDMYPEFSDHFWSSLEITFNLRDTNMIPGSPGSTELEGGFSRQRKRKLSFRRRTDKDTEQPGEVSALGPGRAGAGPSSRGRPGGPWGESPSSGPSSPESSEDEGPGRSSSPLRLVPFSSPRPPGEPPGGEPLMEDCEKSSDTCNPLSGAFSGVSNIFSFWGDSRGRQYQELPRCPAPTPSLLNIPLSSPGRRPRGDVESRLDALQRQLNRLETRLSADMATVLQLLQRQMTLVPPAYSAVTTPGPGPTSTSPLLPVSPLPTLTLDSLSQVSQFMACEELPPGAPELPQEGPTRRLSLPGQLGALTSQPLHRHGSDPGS
row,SMILES,"hERG current change (%, negative = inhibition) at 10uM"
1,Nn1c(SCC(=O)NC2CCS(=O)(=O)C2)nc2scc(-c3ccccc3)c2c1=O (stereo not drawn),3.48%
2,COc1ccc(Nc2cc(C(=O)NCCCN3CCOCC3)c3ccccc3n2)c(OC)c1,-19.2%
3,COCCN1CC(C(=O)NCCc2nc(C)c(C)s2)CCC1=O (stereo not drawn),21.6%
4,CCC(COC)NCc1cn(-c2ccc(F)cc2F)nc1-c1ccccc1C (stereo not drawn),-18%
5,C[C@]12CC[C@@H]3c4ccc(O)cc4[C@@H](O)C[C@H]3[C@@H]1CC[C@@H]2O,10.4%
6,Cc1ccc(/C=N/NC(=O)Cn2nccc2C)o1,-0.784%
7,CCOc1cc(/C=C(\C#N)C(=O)Nc2cccc(C(=O)O)c2)ccc1OCc1ccc(Br)cc1,15.9%
8,Cn1c(NN)nc2sc3c(c2c1=O)CCC3,-7.28%
9,CCN(CC)CCCNC(=O)c1oc2ccc(S(=O)(=O)N3CC(C)CC(C)C3)cc2c1C (stereo not drawn),-32%
10,O=C(CN(CC(=O)N1CCOCC1)S(=O)(=O)c1ccc(Br)s1)N1CCOCC1,12.8%
11,O=[N+]([O-])c1cc(C(F)(F)F)cc([N+](=O)[O-])c1NCCNC(=S)Nc1ccc(Cl)c(Cl)c1,12%
12,Cc1cc(NC(=O)c2ccco2)sc1C,-1.03%
13,O=C(NCC1CCCO1)C1CCN(C2CCN(C(=O)CC3CCCC3)CC2)CC1 (stereo not drawn),-10%
14,C=CCN(CC=C)C(=O)c1ccc(OC2CCN(S(=O)(=O)N(C)C)CC2)cc1,14.4%
15,O=C(N/N=C/c1sc(=O)n(-c2ccccc2)c1Cl)c1ccncc1,15.4%
16,Cc1ccc(S(=O)(=O)N2[C@@H](c3cccc(Cl)c3)C(C(=O)O)=CC[C@H]2c2ccc(C(C)C)cc2)cc1,4.45%
17,CCN1C(=O)C(C(=O)c2ccccc2)SC1=S (stereo not drawn),23.1%
18,O=C(NCCCN1CCN(Cc2ccccc2)CC1)C1CCN(S(=O)(=O)N2CCCC2)CC1,-18.5%
19,COc1ccc(NC(=O)Nc2nnc(-c3ccco3)s2)cc1,10.7%
20,Cn1c(NCCCO)nc2ccccc21,9.51%
21,BrC(=C\c1ccccc1)/C=N/N1CCN(Cc2ccccc2)CC1,4.34%
22,O=C(NCCS(=O)(=O)NCCc1ccccc1)c1ccc2c(c1)OCO2,-6.13%
23,O=C(CSc1nnc(-c2ccco2)c(-c2ccco2)n1)c1ccccc1,4.5%
24,Cc1ccn2c(=O)c(C(=O)NCCCN3CCCCC3C)c(O)nc2c1 (stereo not drawn),6.34%
